For this assay, the target named is T1, GST-P58^IPK fusion protein (human (cDNA from HUVEC), UniProt Q13217 32-504).
T1 chain: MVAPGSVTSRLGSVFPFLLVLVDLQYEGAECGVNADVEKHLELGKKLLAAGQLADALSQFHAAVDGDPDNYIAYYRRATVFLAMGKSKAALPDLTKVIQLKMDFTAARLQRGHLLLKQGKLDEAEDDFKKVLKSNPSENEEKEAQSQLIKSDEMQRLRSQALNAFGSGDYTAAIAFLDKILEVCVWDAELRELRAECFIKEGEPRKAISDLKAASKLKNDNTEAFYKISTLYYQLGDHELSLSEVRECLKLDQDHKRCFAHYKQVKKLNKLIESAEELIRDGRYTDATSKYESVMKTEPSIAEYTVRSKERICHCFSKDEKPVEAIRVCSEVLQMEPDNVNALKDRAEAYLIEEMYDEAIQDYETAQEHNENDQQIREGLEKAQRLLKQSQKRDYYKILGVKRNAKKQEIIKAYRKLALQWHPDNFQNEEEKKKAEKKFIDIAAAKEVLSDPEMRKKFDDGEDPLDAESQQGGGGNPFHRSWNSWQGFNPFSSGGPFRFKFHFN
The assay is described as follows: BLI.

Broadly, the koff is a measure of how fast the partners let go of each other. A lower koff goes with slow dissociation.

B1: C-terminally His tagged Hsp40 (natural protein)
chain: GKDYYQTLGLARGASDEEIKRAYRRQALRYHPDKNKEPGAEEKFKEIAEAYDVLSDPRKREIFDRYGEEGLKGSGPSGGSGGGANGTSFSYTFHGDPHAMFAEFFGGRNPFDTFFGQRNGEEGMDIDDPFSGFPMGMGGFTNVNFGRSRSAQEPARKKQ[letters of about 150 residues omitted]PERIPQTSRTVLEQVLPI
B1 gave a koff of 0.0697 s⁻¹.

For the origin of these results see article PMC8550428 (2021).
